This note sets out measurements from paper PMC4336329 (PLoS ONE, 2015).

About 14,000 (4.5%) of roughly 310,000 compounds showed an effect of 50% or more. Effects have a minus sign here. Some of the results follow.
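Note: peak tail current of the secondary pulse compared with the same well before compound.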

In this assay the target is human ether-à-go-go-related gene (hERG) potassium channel (human, UniProt Q12809). Description: primary screen, population patch clamp on CHO cells stably expressing hERG.
human ether-à-go-go-related gene (hERG) potassium channel, sequence (Q12809 whole entry, looked up): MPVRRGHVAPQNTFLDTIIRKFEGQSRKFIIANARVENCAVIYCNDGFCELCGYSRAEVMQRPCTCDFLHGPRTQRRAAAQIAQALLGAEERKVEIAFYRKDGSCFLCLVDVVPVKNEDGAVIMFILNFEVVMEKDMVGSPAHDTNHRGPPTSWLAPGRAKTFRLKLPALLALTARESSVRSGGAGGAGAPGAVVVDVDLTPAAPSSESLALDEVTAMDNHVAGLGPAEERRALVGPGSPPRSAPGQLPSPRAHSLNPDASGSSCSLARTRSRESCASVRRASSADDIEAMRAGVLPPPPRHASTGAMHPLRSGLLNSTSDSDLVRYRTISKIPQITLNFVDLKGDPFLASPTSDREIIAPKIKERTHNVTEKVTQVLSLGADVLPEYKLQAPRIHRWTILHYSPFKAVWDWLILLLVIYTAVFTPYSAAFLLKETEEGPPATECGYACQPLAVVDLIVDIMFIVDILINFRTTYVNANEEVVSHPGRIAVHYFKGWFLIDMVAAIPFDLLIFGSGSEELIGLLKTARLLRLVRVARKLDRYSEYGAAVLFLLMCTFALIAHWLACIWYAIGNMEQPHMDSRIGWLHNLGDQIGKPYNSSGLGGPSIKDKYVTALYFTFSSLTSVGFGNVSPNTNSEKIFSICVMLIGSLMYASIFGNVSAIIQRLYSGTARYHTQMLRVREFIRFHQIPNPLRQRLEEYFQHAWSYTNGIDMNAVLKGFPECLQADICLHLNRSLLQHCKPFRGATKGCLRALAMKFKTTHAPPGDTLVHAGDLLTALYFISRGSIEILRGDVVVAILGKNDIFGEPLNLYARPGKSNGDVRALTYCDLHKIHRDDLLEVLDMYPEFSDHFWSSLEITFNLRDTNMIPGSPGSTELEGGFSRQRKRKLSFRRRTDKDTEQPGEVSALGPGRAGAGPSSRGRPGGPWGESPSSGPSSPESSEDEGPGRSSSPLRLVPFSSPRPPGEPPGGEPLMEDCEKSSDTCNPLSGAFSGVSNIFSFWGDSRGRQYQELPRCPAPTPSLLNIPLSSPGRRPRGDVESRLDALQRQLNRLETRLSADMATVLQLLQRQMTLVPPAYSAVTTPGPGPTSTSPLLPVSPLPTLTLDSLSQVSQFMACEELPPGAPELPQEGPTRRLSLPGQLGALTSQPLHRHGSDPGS
With `NC(=O)C1CC(=O)N(c2ccc(OCc3ccc(Cl)cc3Cl)cc2)C1` (centres unmarked), the “hERG current change (%, negative = inhibition) at 10uM” value is given as -4.2%.
As for `O=C1CCCN1CC(O)CS(=O)(=O)c1ccc(Cl)cc1` (centres unmarked), the figure is 16.7%.
As for `CSc1cccc(NC(=S)N2CCC(N(C)C3CCCCC3)CC2)c1`, the “hERG current change (%, negative = inhibition) at 10uM” value was -64.4%.
On to `NC(=O)C1CCCN(C(=O)c2ccc(S(=O)(=O)N3CCCCCC3)cc2)C1` (centres unmarked), for which the “hERG current change (%, negative = inhibition) at 10uM” value is -6.23%.
As for `CCOC(=O)c1oc2ccccc2c1COC(=O)CNC(=O)c1ccc(C)cc1`, the figure is -18.7%.
On to `CCc1nnc(NC(=O)c2cc(S(=O)(=O)N(CC)CC)ccc2Cl)s1`, for which the “hERG current change (%, negative = inhibition) at 10uM” value is -7.31%.
Turning to `CCn1c(=O)cc(SCC(=O)N2CCN(C(=O)c3ccco3)CC2)c2ccccc21`, the “hERG current change (%, negative = inhibition) at 10uM” value was -31.8%.
The result for `COc1cc(C(=O)OCC(=O)Nc2sccc2C(N)=O)cc(OC)c1OC` reads 46.2%; that for `O=C(/C=C/c1ccccc1)c1cc(Br)ccc(=O)c1O`, -0.716%; that for `O=C1C(Cl)=C(NCC2CCCO2)C(=O)N1C1CCCCC1` (centres unmarked), 8.8%.
As for `NC(=O)C1(NC(=O)[C@@H]2CC3(CC(c4cccc(NC(=O)[C@@H]5CCC(=O)N5)c4)=NO3)CN2C(=O)c2cnccn2)CC1` (some centres unmarked), the figure is 10.3%; as for `CC(C)OCCCN(C)C1CCN(S(=O)(=O)c2ccc(-c3ccc(=O)[nH]n3)s2)CC1`, -35.8%.
As for `CCOc1ccc(C(C)=O)cc1N1C(=O)C2C3C=CC(C3)C2C1=O` (centres unmarked), the figure is 8.85%.
As for `CCc1ccccc1NC(=O)CC(O)(C(=O)OC)C(F)(F)F` (centres unmarked), the “hERG current change (%, negative = inhibition) at 10uM” value was determined as 13.3%.
The result for `NC(=O)c1cc2ccc(O)cc2oc1=NCc1ccccc1` reads -18.8%; that for `CCC1(c2ccccc2)NC(=O)N(CC(=O)Nc2cccnc2Cl)C1=O` (centres unmarked), 18.1%.
As for `CN1CSC2=C(C#N)C(c3cccc(OCc4ccccc4)c3)CC(=O)N2C1` (centres unmarked), the figure is -6.57%; as for `CCOc1ccc(NC(=O)CSc2ncn[nH]2)c([N+](=O)[O-])c1`, 10.6%.
With `COc1ccc(CCNC(=O)CCCCCn2c(SCC(N)=O)nc3cc4c(cc3c2=O)OCO4)cc1OC`, the “hERG current change (%, negative = inhibition) at 10uM” value is -2.91%.
As for `CC(C)(C)c1ccc(Oc2ccc(N)cc2)cc1`, the figure is 8.32%; as for `COC(=O)C1CN(C(=O)C(C)Oc2ccc(C)c(C)c2)c2ccccc2O1` (centres unmarked), -37.5%; as for `CC(=O)c1cc2c(cc1NC(=O)CN1CCCCC1C)OCO2.O=C(O)C(=O)O` (centres unmarked), 0.64%.
The result for `O=C1c2cccc(Cl)c2C(=O)N1c1ccccn1` reads 9.65%.
On to `COc1ccc(NC(=O)CCSc2ccc(C)cc2)cc1`, for which the “hERG current change (%, negative = inhibition) at 10uM” value is given as -3.34%.
As for `Br.Cc1nc(-c2ccc(C(=O)O)cc2)cs1`, the figure is 7.39%; as for `CCCN(CCC)C(=O)c1cc2c(=O)[nH]c3ccc(C)cc3c2s1`, 26.3%.
The result for `CCOC(=O)c1c(Nc2ccccc2N)cc(C)nc1C` reads -13.9%; that for `COc1cccc(NC(=O)CSc2nnc(COc3ccc4c(c3)CCCC4)o2)c1`, 5.23%.
The result for `COC(=O)C1=C(C)N(CCCC(=O)O)C(=O)NC1c1ccc([N+](=O)[O-])cc1` (centres unmarked) reads 14.6%.
For `O=C(CCC(=O)OCc1cccc([N+](=O)[O-])c1)Nc1ccc(F)cc1`, the “hERG current change (%, negative = inhibition) at 10uM” value is given as 12.5%.
As to `COc1ccc2oc(=O)c(C(=O)NCc3ccc4c(c3)OCO4)cc2c1`, the “hERG current change (%, negative = inhibition) at 10uM” value amounted to 12.7%.
As for `CCCCN(Cc1ccccc1)c1ncnc2nc[nH]c12`, the “hERG current change (%, negative = inhibition) at 10uM” value is 6.29%.
The result for `NC(=O)COc1cccc2cccnc12` reads 6.08%.
On to `OCCC1CN(Cc2cccn2-c2ccccn2)CCN1C1CCCCC1` (centres unmarked), for which the “hERG current change (%, negative = inhibition) at 10uM” value was -57.1%.
Regarding `COC(=O)c1cc(S(=O)(=O)Nc2c(C)cccc2C)cn1C`, the “hERG current change (%, negative = inhibition) at 10uM” value is -3.98%.
As for `COc1cc(CC(=O)N2C[C@H]3C[C@@H](C2)c2cccc(=O)n2C3)cc(OC)c1OC`, the figure is 6.29%.
As for `O=C(NNC(=O)c1ccc2[nH]c(=O)c(=O)[nH]c2c1)c1cccc(Br)c1`, the figure is 3.95%; as for `COc1ccc(NC(=O)CSc2nc3ccccc3nc2N2CCCCC2)cc1`, -4.58%.
The result for `C=CCn1cccc(C(=O)Nc2ccc(F)cc2)c1=O` reads -24.8%.
`CCCC(=O)Nc1ccc2c(c1)nc(CN1CCN(C(=O)OCC)CC1)n2CC`: the “hERG current change (%, negative = inhibition) at 10uM” value turned out to be 9.54%.
Take `O=C(NCc1ccccc1)c1cc(-c2ccncc2)nc2ccccc12`: the “hERG current change (%, negative = inhibition) at 10uM” value was -34%.
As to `O=C(C[n+]1ccccc1)N/N=C/c1ccc(Cl)cc1.[Cl-]`, the “hERG current change (%, negative = inhibition) at 10uM” value was -5.76%.
The result for `Cc1ccc(S(=O)(=O)N(C)C)cc1NC(=O)COC(=O)CCC1CCCCC1` reads 2.99%; that for `Cn1c(=O)cc(SCC(=O)NCc2cccnc2)c2ccccc21`, 5.03%.
